In all, about 33,000 sequences were measured (“E-score (-0.5 to 0.5)”: median about -0.04, highest 2% from about 0.36 on). The list shows a part of the results.

For the assay, the target named is T1, Hmlalpha2 (UniProt P0CY09).
T1 sequence: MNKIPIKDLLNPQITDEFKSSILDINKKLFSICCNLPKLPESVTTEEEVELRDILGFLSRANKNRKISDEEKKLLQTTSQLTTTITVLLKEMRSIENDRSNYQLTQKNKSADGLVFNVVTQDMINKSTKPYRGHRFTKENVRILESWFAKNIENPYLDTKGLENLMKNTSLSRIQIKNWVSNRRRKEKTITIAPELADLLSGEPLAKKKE
Briefly: PBM E-score (8-mer binding enrichment) (E-score (-0.5 to 0.5)); higher = stronger / more preferred TF binding; most listed sequences are background and not binding sites. The following applies: protein concentration: 200 nM; construct: GST-full length. The procedure, abridged: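 E-scores (a modified Wilcoxon-Mann-Whitney statistic) were assigned by the Universal PBM Analysis Suite to every ungapped eight-base word pooled with its reverse complement. The input came from universal all-10-mer Agilent arrays made double-stranded by primer extension and probed with GST-tagged yeast transcription factors at about 100-200 nM. Fluorescent anti-GST detected bound protein, and masliner normalised the scans.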
Take CGGAGGCA: the “PBM E-score” value is -0.283.
For AACCTGTA, the “PBM E-score” value was determined as 0.131.
For GACCCCGC, the “PBM E-score” value is -0.201.
As for AGTGGACG, the “PBM E-score” value came out at 0.00558.
In the case of ACTATTTG, the “PBM E-score” value was 0.092.
For the sequence CCCAGGAA, the “PBM E-score” value is -0.13.
As for CCACCCTC, the “PBM E-score” value is -0.271.
With ATGCCGAA, the “PBM E-score” value is -0.00556.
Regarding ATTCGAAT, the “PBM E-score” value is -0.107.
ACGTTGCA: the “PBM E-score” value was 0.063.
To GAAGACGA belongs -0.0933.
For CTTGGCTA, the “PBM E-score” value is -0.0467.
On to CCGAAACA, for which the “PBM E-score” value is 0.0293.
As to ATTCCTCA, the “PBM E-score” value stood at 0.0961.
With ACACGTCA the figure was 0.317; with AGCTGGAA, -0.179.
With CTTGACTA, the “PBM E-score” value is 0.0152.
To AGTATCAT belongs 0.118.
In the case of AGTCTTTA, the “PBM E-score” value is 0.0617.
For the sequence CCAAGACA, the “PBM E-score” value is 0.143.
Consider CTCGCGAC, for which the “PBM E-score” value is -0.269.
As for ACGCACAT, the “PBM E-score” value is 0.176.
To ATAGATAG belongs -0.116; to TACGGGCA, -0.11.
To AGACGGCG belongs -0.257.
As for CTCATGAC, the “PBM E-score” value is 0.00516.
As for CCAAGCAG, the “PBM E-score” value was -0.127.
For the sequence AACCAGTC, the “PBM E-score” value is -0.0499.
For AGGCGTGG, the “PBM E-score” value was -0.379.
With AATCTGTG the figure was 0.0542.
With AACTAGCG the figure was -0.0625; with CGCTTACG, -0.00687.
In the case of ATTACGTG, the “PBM E-score” value came to 0.452.
As for GGATCTAA, the “PBM E-score” value was -0.159.
Consider ACACTCCA, for which the “PBM E-score” value stood at 0.027.
Take CTAACCCC: the “PBM E-score” value is -0.345.
As to GAGGGATA, the “PBM E-score” value was -0.254.
As for GGATCGTA, the “PBM E-score” value is -0.0488.
Consider GTCGGCTA, for which the “PBM E-score” value is -0.00252.
With CTATCAGC the figure was -0.0414; with CCATTGAA, 0.0647.
Turning to AATAGTAG, the “PBM E-score” value was determined as 0.0941.
GTCATACA: the “PBM E-score” value was 0.125.
As to AAAGTACG, the “PBM E-score” value was 0.159.
Consider CGCAATTA, for which the “PBM E-score” value was determined as 0.141.
For GTTTGATA, the “PBM E-score” value is 0.0313.
Turning to ACAAAGCT, the “PBM E-score” value came to 0.213.
Take ATATCGCC: the “PBM E-score” value amounted to 0.0196.
Turning to GCCTTCAA, the “PBM E-score” value is -0.035.
Take AGTGCATG: the “PBM E-score” value stood at 0.108.
CCTAGCGC: the “PBM E-score” value was -0.102.
To AACACACT belongs 0.313.
Turning to ACTTTCAC, the “PBM E-score” value turned out to be 0.0702.
As to CAACCGTC, the “PBM E-score” value is -0.12.
To ATTATACC belongs 0.0784; to CTCTAGTC, -0.289.
Turning to TGACCCAA, the “PBM E-score” value is -0.0562.
On to TAGCCAAA, for which the “PBM E-score” value is -0.0307.
As to ATATTGCA, the “PBM E-score” value was -0.0157.
As for ATCAGAAC, the “PBM E-score” value was -0.0344.
For the sequence AAACTGGC, the “PBM E-score” value was -0.0453.
To CCTTGCGA belongs -0.239.
To AGCTGGCA belongs -0.193.
AGGGGGTA: the “PBM E-score” value is -0.336.
With AGTCGGAG, the “PBM E-score” value was -0.235.
GGCACGTA: the “PBM E-score” value was 0.226.
CTTTCGAC: the “PBM E-score” value is -0.0323.
Take ATACGGGG: the “PBM E-score” value is -0.136.
For GCAACGGC, the “PBM E-score” value is -0.0782.
With GCCACTAC the figure was -0.184; with GGCCCTCA, -0.342.
Consider AGCCCTGG, for which the “PBM E-score” value was -0.272.
As to ACGCATAA, the “PBM E-score” value was 0.208.
On to ACACATTA, for which the “PBM E-score” value is 0.268.
Take ACACAGAT: the “PBM E-score” value amounted to 0.264.
Consider CCCAGCGA, for which the “PBM E-score” value is -0.183.
Turning to GGCCAACA, the “PBM E-score” value was -0.101.
Turning to CAGCAATG, the “PBM E-score” value was -0.0445.
Take AGACGGTG: the “PBM E-score” value is -0.231.
For CAAGACAG, the “PBM E-score” value worked out at 0.0592.
To ACGAGTTC belongs 0.138.
As to CTACCTTC, the “PBM E-score” value amounted to 0.0209.
To CATGATTA belongs 0.25; to AACGCCAC, 0.0709.
Consider CAAAGACG, for which the “PBM E-score” value is -0.153.
As to ACTACCCG, the “PBM E-score” value came to 0.0106.
Take AAAGCAGC: the “PBM E-score” value was -0.0392.
On to CTCATCGA, for which the “PBM E-score” value was -0.164.
For GCCGCCGC, the “PBM E-score” value was -0.264.
For ATGCCGAC, the “PBM E-score” value was -0.0235.
As for CTACTAAC, the “PBM E-score” value stood at 0.275.
Regarding ACCTCTCA, the “PBM E-score” value was -0.147.
To ATGGGGAC belongs -0.193.
Regarding CCATAGAG, the “PBM E-score” value was -0.305.
For GAGACCTA, the “PBM E-score” value is -0.12.
With GCCGTTCA the figure was -0.193.
Regarding ACCACAAT, the “PBM E-score” value is -0.143.
As to GAACGCGC, the “PBM E-score” value worked out at 0.155.
For GCGACGAC, the “PBM E-score” value was -0.276.
Consider AGAGTGGA, for which the “PBM E-score” value was -0.0454.
Regarding CAATGCCC, the “PBM E-score” value is -0.236.
To CACCGATC belongs -0.212; to ACTCACAA, 0.0844.
As for AGGTGAAA, the “PBM E-score” value was -0.0005.
AATTCATG: the “PBM E-score” value was 0.209.
On to GCGGATCC, for which the “PBM E-score” value was -0.336.
With CCACAAGG, the “PBM E-score” value is -0.171.
On to CCACTAGC, for which the “PBM E-score” value is -0.111.
As to GCCCGTAA, the “PBM E-score” value was 0.00975.
Turning to AGATCTAA, the “PBM E-score” value was -0.0541.

These data come from the supplement of paper PMC3334620.
